# Out of some 220,000 compounds screened, about 16,000 (7.3%) were called active. The inconclusive results got no clear call from the source; some entries with a clear call stand among them for comparison. Calls come from the whole dose curve; as a rule, active = well fitted inhibition curve with a large enough effect (not every such curve was filed as active); inconclusive = small, poorly fitted or top-dose-only effect, or another doubt; inactive = no such curve, though single readings can be large or run the other way. Potencies of inconclusive entries are left out as doubtful fits.
# Target: Aldehyde dehydrogenase 1A1 (Homo sapiens) (UniProt P00352)
# UniProt P00352, sequence (P00352 whole entry, looked up): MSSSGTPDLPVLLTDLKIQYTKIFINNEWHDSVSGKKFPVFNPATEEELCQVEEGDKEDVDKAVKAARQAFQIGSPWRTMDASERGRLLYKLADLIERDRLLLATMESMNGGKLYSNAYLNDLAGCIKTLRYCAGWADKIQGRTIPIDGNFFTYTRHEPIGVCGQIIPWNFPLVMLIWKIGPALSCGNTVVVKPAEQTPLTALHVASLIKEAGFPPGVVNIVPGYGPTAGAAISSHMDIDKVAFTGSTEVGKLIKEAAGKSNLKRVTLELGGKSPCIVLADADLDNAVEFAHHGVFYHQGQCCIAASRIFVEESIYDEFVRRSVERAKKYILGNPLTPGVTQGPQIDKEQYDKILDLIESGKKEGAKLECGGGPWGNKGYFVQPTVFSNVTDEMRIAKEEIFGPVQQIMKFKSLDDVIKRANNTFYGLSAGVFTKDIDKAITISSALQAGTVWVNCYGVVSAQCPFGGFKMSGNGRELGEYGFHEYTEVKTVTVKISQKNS
# Assay: qHTS Assay for Inhibitors of Aldehyde Dehydrogenase 1 (ALDH1A1);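 for activity, negative = inhibition: plate controls were no enzyme wells and a reference inhibitor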
# Settings: Purified ALDH1A1, NADH fluorescence, propionaldehyde substrate; series mostly up to 75.3 µM; activity, negative = inhibition: at the top concentration
# Potency is the fitted concentration of half-maximal effect; tags give direction and shape of the fitted curve.
Compound,Potency,"activity, negative = inhibition"
Cc1ccc(S(=O)(=O)N2CCCOC2CNC(=O)C(=O)NCc2ccco2)cc1 (centres undefined),"inconclusive [inhibitor, single point]",
Cc1ccn2c(/C=N/OCc3ccc(F)cc3)c(-c3ccc(Cl)cc3)nc2c1,active: 22.4 µM,
C[C@H]1CS(=O)(=O)CCN1/N=C\c1ccc([N+](=O)[O-])o1,"inconclusive [inhibitor, single point]",
O=C(Nc1ccc(F)cc1)N1CCC(c2nc3c(nnn3Cc3cccc(Cl)c3)c(=O)[nH]2)CC1,,inactive: 11.7%
COc1cc(/C=C2\CCc3c2nc2ccccc2c3C(=O)O)cc(OC)c1OC,"inconclusive [inhibitor, partial curve]",
O=[N+]([O-])c1cc(Cl)cc2c1nc(NCCO)c1ccccc12,"inconclusive [inhibitor, single point]",
COc1ccc(C(=O)Nc2cc(C(F)(F)F)ccc2-n2cnc3ccccc32)cc1,"inconclusive [inhibitor, single point]",
O=C(Nc1cccc(OCC(=O)N2CCOCC2)c1)C1CCCCC1,,inactive: 4.85%
CC(=O)N1N=C(c2ccncc2)CC1c1ccccc1O (centres undefined),,inactive: -5.96%
CC1=C(C2=C(C)C(C(C)C)C3=C(C(=O)C(O)C3O)C2O)C(O)C2=C(C(O)C(O)C2=O)C1C(C)C (centres undefined),,inactive: -6.57%
COc1cc(C=O)ccc1OCc1ccc(Cl)nc1,active: 5.01 µM,
COc1ccc(-c2[nH]c(-c3ccccc3)nc2SCC(=O)NCc2ccco2)cc1OC,"inconclusive [inhibitor, single point]",
COc1cc(OC)cc(C(=O)Oc2c(CN3CCOCC3)cc(Cl)c3cccnc23)c1,"inconclusive [inhibitor, single point]",
O=C(CSc1nnc(COc2ccccc2)n1Cc1ccco1)Nc1ccc2c(c1)OCCO2,"inconclusive [inhibitor, single point]",
Cc1cc(C(=O)OCC(=O)Nc2cccc(S(=O)(=O)N(C)C)c2)c2ccccc2n1,"inconclusive [inhibitor, single point]",
O=C(O)c1ccc(COc2ccccc2/C=C2\NC(=O)N(Cc3ccccc3)C2=O)cc1,"inconclusive [inhibitor, single point]",
Cc1cccc(N2C(=O)c3cccc4c(N5CCCCC5)c([N+](=O)[O-])cc(c34)C2=O)c1C,"inconclusive [inhibitor, partial curve]",
COc1ccc(/C=C2\SC(=S)N(Cc3cccnc3)C2=O)cc1C,,inactive: -2.46%
O=C(/C=C/c1ccncc1)c1cc(Cl)ccc1O,"inconclusive [inhibitor, partial curve]",
O=C(COC(=O)c1ccco1)NCC1CCCO1 (centres undefined),"inconclusive [inhibitor, single point]",
COc1cccc(C2CC(=O)NC(SC)=C2C#N)c1 (centres undefined),"inconclusive [inhibitor, partial curve]",
COc1ccccc1COC(=O)N/C=C/c1ccco1,"inconclusive [inhibitor, full curve]",
CCC(C)C(=O)Nc1nc2ccc(S(C)(=O)=O)cc2s1 (centres undefined),"inconclusive [inhibitor, single point]",

Compound,Potency,"activity, negative = inhibition"
Cc1cc(C(=O)NCc2ccccc2Br)no1,"inconclusive [inhibitor, single point]",
CC(C)[C@@H](CC(=O)N[C@@H]1CCCC[C@H]1C(=O)N[C@H](CC(=O)N[C@@H](CCC(=O)O)CC(=O)O)Cc1c[nH]c2ccccc12)NC(=O)C[C@H](CO)NC(=O)[C@@H]1CNCC[C@H]1N,"inconclusive [inhibitor, single point]",
O=C(c1ccc2c(=O)n(-c3ccccc3)c(=O)[nH]c2c1)N1CCCCC1,"inconclusive [inhibitor, single point]",
CCN1C(=O)/C(=C/N(C(C)=O)c2ccccc2)N(c2ccccc2)C1=S,"inconclusive [inhibitor, partial curve]",
CC(=O)NNC(=S)NC(=O)c1ccc(C)cc1,"inconclusive [inhibitor, single point]",
S=C(c1ccc(-c2ccc(Cl)cc2Cl)o1)N1CCCCC1,active: 14.1 µM,
Cc1cccc(C)c1NS(=O)(=O)c1ccc(F)cc1,,inactive: -8.41%
C=CCN1C(=O)C(Cc2ccc(C)cc2)S/C1=N/N=C/c1ccco1 (centres undefined),"inconclusive [inhibitor, partial curve]",
CC(=O)N(Cc1ccco1)Cc1cc2cccc(C)c2n2nnnc12,"inconclusive [inhibitor, single point]",
CC(C)=NO[C@@H](C)CN1CCCCc2nc(C)c(C)cc21,,inactive: -7.35% [at 13.5 µM]
CSc1nc(SCC(N)=O)c2c3c(sc2n1)CN(C)CC3,"inconclusive [inhibitor, single point]",
COc1cc2nc(/C=C/c3cc(OC)c(OC)c(OC)c3)sc2cc1SC,"inconclusive [inhibitor, partial curve]",
CC(OC(=O)c1snc(C(=O)NC2CCCCC2)c1N)C(=O)NC1CCCCC1 (centres undefined),"inconclusive [inhibitor, partial curve]",
COc1cc(-c2cc(=O)c3c(O)cc(O)cc3o2)ccc1O,"inconclusive [inhibitor, partial curve]",
O=Cc1cn(CC(=O)N2CCCc3ccccc32)c2ccccc12,"inconclusive [inhibitor, single point]",
COCCCn1c(SCC(=O)Nc2ccc(C(=O)OC)cc2)nc2ccccc2c1=O,"inconclusive [inhibitor, full curve]",
CCOc1cc(CNCCSc2nnnn2C)cc(Br)c1OCc1ccccc1,"inconclusive [inhibitor, partial curve]",
Cc1cc(O)cc(O)c1C(=O)OC1(C)C(=O)C=C2C=C(/C=C/CO)OC=C2C1=O (centres undefined),active: 22.4 µM,
COc1cccc(C(=O)Nc2cc(=O)n(C)c(=O)n2C)c1OC,,inactive: -3.16%
CCN(CC)CCCNC(=O)CSc1c2c(nc3cc(Cl)ccc13)CCCC2,,inactive: -6.35%
CC1=CC(c2ccc(Cl)cc2)n2nc(NS(=O)(=O)c3ccc(C)cc3)nc2N1 (centres undefined),"inconclusive [inhibitor, single point]",
O=c1c2ccccc2nc(-c2ccccc2)n1/N=C/c1ccc([N+](=O)[O-])cc1,,inactive: 6.06%
CC(C)C[C@H](NC(=O)NC1CCCc2ccccc21)C(=O)O (some centres undefined),,inactive: 18.6%

Compound,Potency,"activity, negative = inhibition"
Cc1cc(F)ccc1NCc1ccccc1[N+](=O)[O-],active: 0.631 µM,
COc1ccc(C(C(C(=O)c2ccco2)N2CCOCC2)N2CCOCC2)cc1 (centres undefined),"inconclusive [inhibitor, single point]",
CCOC(=O)CCc1c(C)nc2cc(C3CCCN(C(=O)OC(C)(C)C)C3)[nH]n2c1=O (centres undefined),"inconclusive [inhibitor, single point]",
Oc1ccc(Cl)cc1CNc1ccc(Br)cn1,,inactive: 5.07%
Oc1ccc(/C=C/c2ccc3ccccc3n2)cc1,"inconclusive [inhibitor, single point]",
Cc1ccc2c(CN3CCN(CCO)CC3)cc(=O)oc2c1C,,inactive: -13.1%
N#CC1=C(N)N(c2ccccc2C#N)C2=C(C(=O)CCC2)C1c1ccsc1 (centres undefined),active: 25.1 µM,
COc1ccc2c3c(c(=O)oc2c1OCC(=O)O)CCCC3,"inconclusive [inhibitor, partial curve]",
Cn1c(=O)c2c(ncn2CC(=O)N2CCN(C(=O)c3ccco3)CC2)n(C)c1=O,"inconclusive [inhibitor, single point]",
Cc1ccc(-c2cc(C(=O)N/N=C/c3c(C)nn(-c4ccccc4)c3C)n[nH]2)s1,"inconclusive [inhibitor, single point]",
CCc1cc2c(cc3c(=O)n(CC(=O)NCCCN4CC(C)CC(C)C4)ncn32)s1 (centres undefined),"inconclusive [inhibitor, full curve, poor fit]",
COc1cccc(CNC(=O)CCc2nnc(C3CCCCC3)o2)c1,"inconclusive [inhibitor, partial curve]",
O=C(/C(=N\Nc1ccc([N+](=O)[O-])cc1)Sc1nnnn1-c1ccccc1)c1ccccc1,active: 3.16 µM,
S=c1[nH]nc(COc2ccccc2)n1/N=C/C=C/c1ccccc1,,inactive: -14.3%
CCC(=O)N1CCCc2cc(S(=O)(=O)N3CCN(c4ccccn4)CC3)ccc21,"inconclusive [inhibitor, single point]",
Cc1ccc(-n2c(C)cc(/C=N/NC(=O)CC3(C)OCCO3)c2C)c(C)c1,active: 14.1 µM,
Cc1nnc(Sc2cc(C(=O)NCc3ccco3)c3ccccc3n2)s1,"inconclusive [inhibitor, single point]",
O=C(NCc1ccncc1)c1cc2ccccc2nc1Cl,,inactive: -0.32%
COc1ccc(N=CC2=C(O)CC(C)(C)CC2=O)cc1,active: 7.94 µM,
O=C(NC(=S)Nc1cccnc1)c1cc2ccccc2o1,"inconclusive [inhibitor, partial curve]",
CCOc1ccc(-n2nc3c(Cl)nnc(C)c3c2C)cc1,"inconclusive [inhibitor, single point]",
COC(=O)N1CCc2cc(OC)c(OC)cc2C1Cc1ccc(OC)cc1 (centres undefined),,inactive: 3% [at 13.5 µM]
Cc1cc(C(F)(F)F)nn1CC(=O)NNC(=S)Nc1ccc(F)cc1,"inconclusive [inhibitor, single point]",

# Reference: PubChem BioAssay AID1030 (National Center for Advancing Translational Sciences (NCATS), 2008)
